In article PMC9911399, “Two distinct binding modes provide the RNA-binding protein RbFox with extraordinary sequence specificity”:
Where a chain is given by its changes, count along the chain named. This is one part of the list.

T1: RBFOX1 RRM (Homo sapiens, UniProt Q9NWB1 109-208)
T1 sequence: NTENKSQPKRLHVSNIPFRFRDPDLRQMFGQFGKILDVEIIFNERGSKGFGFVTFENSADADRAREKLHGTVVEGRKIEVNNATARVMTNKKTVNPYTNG

B1: CAUAAGU (DNA:RNA)
RNA: GGGAGACCGGAAUUCAGAUUGUCCCAUAAGUUUAAAUCCCGUCGUAGCCACCA
DNA 1: CAATCTGAATTCCGGTCTCCC
DNA 2: TGGTGGCTACGACGGGATT
B2: UAGCCUG (DNA:RNA)
RNA: B1 RNA with C25U, U27G, A28C, A29C, G30U, U31G
DNA 1: CAATCTGAATTCCGGTCTCCC
DNA 2: TGGTGGCTACGACGGGATT
B3: AUAUGUC (DNA:RNA)
RNA: GGGAGACCGGAAUUCAGAUUGUCCAUAUGUCUUAAAUCCCGUCGUAGCCACCA
DNA 1: CAATCTGAATTCCGGTCTCCC
DNA 2: TGGTGGCTACGACGGGATT
B4: CCCUAAC (DNA:RNA)
RNA: B3 RNA with A25C, U26C, A27C, G29A, U30A
DNA 1: CAATCTGAATTCCGGTCTCCC
DNA 2: TGGTGGCTACGACGGGATT
B5: CACUGGU (DNA:RNA)
RNA: B1 RNA with U27C, A28U, A29G
DNA 1: CAATCTGAATTCCGGTCTCCC
DNA 2: TGGTGGCTACGACGGGATT
B6: CCCUCGC (DNA:RNA)
RNA: B3 RNA with A25C, U26C, A27C, G29C, U30G
DNA 1: CAATCTGAATTCCGGTCTCCC
DNA 2: TGGTGGCTACGACGGGATT
B7: UCGUUUU (DNA:RNA)
RNA: B3 RNA with A25U, U26C, A27G, G29U, C31U
DNA 1: CAATCTGAATTCCGGTCTCCC
DNA 2: TGGTGGCTACGACGGGATT
B8: GUGGUCG (DNA:RNA)
RNA: B3 RNA with A25G, A27G, U28G, G29U, U30C, C31G
DNA 1: CAATCTGAATTCCGGTCTCCC
DNA 2: TGGTGGCTACGACGGGATT
B9: CGAUUAA (DNA:RNA)
RNA: B3 RNA with A25C, U26G, G29U, U30A, C31A
DNA 1: CAATCTGAATTCCGGTCTCCC
DNA 2: TGGTGGCTACGACGGGATT
B10: UUCUCGC (DNA:RNA)
RNA: B3 RNA with A25U, A27C, G29C, U30G
DNA 1: CAATCTGAATTCCGGTCTCCC
DNA 2: TGGTGGCTACGACGGGATT
B11: UAAAAAG (DNA:RNA)
RNA: B1 RNA with C25U, U27A, G30A, U31G
DNA 1: CAATCTGAATTCCGGTCTCCC
DNA 2: TGGTGGCTACGACGGGATT
B12: UCCUUGC (DNA:RNA)
RNA: B3 RNA with A25U, U26C, A27C, G29U, U30G
DNA 1: CAATCTGAATTCCGGTCTCCC
DNA 2: TGGTGGCTACGACGGGATT
B13: GAGCUAC (DNA:RNA)
RNA: B3 RNA with A25G, U26A, A27G, U28C, G29U, U30A
DNA 1: CAATCTGAATTCCGGTCTCCC
DNA 2: TGGTGGCTACGACGGGATT
B14: CGGUAUA (DNA:RNA)
RNA: B3 RNA with A25C, U26G, A27G, G29A, C31A
DNA 1: CAATCTGAATTCCGGTCTCCC
DNA 2: TGGTGGCTACGACGGGATT
B15: UUGAACC (DNA:RNA)
RNA: B3 RNA with A25U, A27G, U28A, G29A, U30C
DNA 1: CAATCTGAATTCCGGTCTCCC
DNA 2: TGGTGGCTACGACGGGATT
B16: CCGUAAG (DNA:RNA)
RNA: B1 RNA with A26C, U27G, A28U, G30A, U31G
DNA 1: CAATCTGAATTCCGGTCTCCC
DNA 2: TGGTGGCTACGACGGGATT
B17: AAUCCAG (DNA:RNA)
RNA: B1 RNA with C25A, A28C, A29C, G30A, U31G
DNA 1: CAATCTGAATTCCGGTCTCCC
DNA 2: TGGTGGCTACGACGGGATT
B18: AGUUCGG (DNA:RNA)
RNA: B3 RNA with U26G, A27U, G29C, U30G, C31G
DNA 1: CAATCTGAATTCCGGTCTCCC
DNA 2: TGGTGGCTACGACGGGATT
B19: UGGUAAU (DNA:RNA)
RNA: B1 RNA with C25U, A26G, U27G, A28U, G30A
DNA 1: CAATCTGAATTCCGGTCTCCC
DNA 2: TGGTGGCTACGACGGGATT
B20: CAAAAGC (DNA:RNA)
RNA: B1 RNA with U27A, U31C
DNA 1: CAATCTGAATTCCGGTCTCCC
DNA 2: TGGTGGCTACGACGGGATT
B21: GUCCUCU (DNA:RNA)
RNA: B3 RNA with A25G, A27C, U28C, G29U, U30C, C31U
DNA 1: CAATCTGAATTCCGGTCTCCC
DNA 2: TGGTGGCTACGACGGGATT
B22: CAUCAAG (DNA:RNA)
RNA: B1 RNA with A28C, G30A, U31G
DNA 1: CAATCTGAATTCCGGTCTCCC
DNA 2: TGGTGGCTACGACGGGATT
B23: UACGUGA (DNA:RNA)
RNA: B1 RNA with C25U, U27C, A28G, A29U, U31A
DNA 1: CAATCTGAATTCCGGTCTCCC
DNA 2: TGGTGGCTACGACGGGATT
B24: UAAAAGU (DNA:RNA)
RNA: B1 RNA with C25U, U27A
DNA 1: CAATCTGAATTCCGGTCTCCC
DNA 2: TGGTGGCTACGACGGGATT
B25: UACAGAA (DNA:RNA)
RNA: B1 RNA with C25U, U27C, A29G, G30A, U31A
DNA 1: CAATCTGAATTCCGGTCTCCC
DNA 2: TGGTGGCTACGACGGGATT
B26: UAUAGAG (DNA:RNA)
RNA: B1 RNA with C25U, A29G, G30A, U31G
DNA 1: CAATCTGAATTCCGGTCTCCC
DNA 2: TGGTGGCTACGACGGGATT
B27: UGUGUAC (DNA:RNA)
RNA: B3 RNA with A25U, U26G, A27U, U28G, G29U, U30A
DNA 1: CAATCTGAATTCCGGTCTCCC
DNA 2: TGGTGGCTACGACGGGATT
B28: UUCGAAU (DNA:RNA)
RNA: B1 RNA with C25U, A26U, U27C, A28G, G30A
DNA 1: CAATCTGAATTCCGGTCTCCC
DNA 2: TGGTGGCTACGACGGGATT
B29: UUGUAAC (DNA:RNA)
RNA: B3 RNA with A25U, A27G, G29A, U30A
DNA 1: CAATCTGAATTCCGGTCTCCC
DNA 2: TGGTGGCTACGACGGGATT
B30: AGUGUAU (DNA:RNA)
RNA: B1 RNA with C25A, A26G, A28G, A29U, G30A
DNA 1: CAATCTGAATTCCGGTCTCCC
DNA 2: TGGTGGCTACGACGGGATT
B31: GCUCGCA (DNA:RNA)
RNA: B3 RNA with A25G, U26C, A27U, U28C, U30C, C31A
DNA 1: CAATCTGAATTCCGGTCTCCC
DNA 2: TGGTGGCTACGACGGGATT

molecular target: T1, RBFOX1 RRM; assay: EMSA; HiTS-Eq, 1 nM pool, 10 min; buffer printed only for the single-RNA assays: 10 mM Tris pH 7.5, 150 mM NaCl, 3.4 mM EDTA, 0.001% NP-40, 30 C; settings: tags: His6 N-terminal (pET28a); label: 5' 32P
In short: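 Relative association constants, normalised to the cognate motif, were derived by comparing read counts of each RNA species with those of the control reaction. The RNA sequenced was the free fraction, separated by 8% native PAGE after a 10 min equilibration in 50 µL of 1 nM 5′-radiolabelled RNA (7 randomized nucleotides) with increasing concentrations of purified wild-type or mutant RbFox RRM.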

Binder | binding signal
B1 | 0.00453 KA relative to UGCAUGU
B2 | 0.0274 KA relative to UGCAUGU
B3 | 0.0093 KA relative to UGCAUGU
B4 | 0.000399 KA relative to UGCAUGU
B5 | 0.00963 KA relative to UGCAUGU
B6 | 0.012 KA relative to UGCAUGU
B7 | 0.0134 KA relative to UGCAUGU
B8 | 0.0242 KA relative to UGCAUGU
B9 | 0.00204 KA relative to UGCAUGU
B10 | 0.0146 KA relative to UGCAUGU
B11 | 0.0059 KA relative to UGCAUGU
B12 | 0.0155 KA relative to UGCAUGU
B13 | 0.0141 KA relative to UGCAUGU
B14 | 0.00273 KA relative to UGCAUGU
B15 | 0.0107 KA relative to UGCAUGU
B16 | 0.00756 KA relative to UGCAUGU

Binder | binding signal
B17 | 0.00117 KA relative to UGCAUGU
B18 | 0.0164 KA relative to UGCAUGU
B19 | 0.0117 KA relative to UGCAUGU
B20 | 0.00183 KA relative to UGCAUGU
B21 | 0.0115 KA relative to UGCAUGU
B22 | 0.00352 KA relative to UGCAUGU
B23 | 0.00812 KA relative to UGCAUGU
B24 | 0.00626 KA relative to UGCAUGU
B25 | 0.00686 KA relative to UGCAUGU
B26 | 0.0123 KA relative to UGCAUGU
B27 | 0.0133 KA relative to UGCAUGU
B28 | 0.0146 KA relative to UGCAUGU
B29 | 0.012 KA relative to UGCAUGU
B30 | 0.00491 KA relative to UGCAUGU
B31 | 0.0158 KA relative to UGCAUGU
